Assay results published in PubChem BioAssay AID360 (National Center for Advancing Translational Sciences (NCATS), 2006).
About 550 (1.1%) of roughly 48,000 compounds were called active. Inconclusive results (about 4%) are left out. Cut-off read from the data, not from the text of the source: active = potency below about 15 µM; inconclusive = mostly about 16 µM to 33 µM; inactive = weaker than that. Some of the results follow.

Each compound was assayed against Lysosomal acid glucosylceramidase (Homo sapiens) (UniProt P04062) (assay: Glucocerebrosidase). Conditions: purified enzyme, resorufin glucoside fluorescence (screen aimed at inhibitors), 20 min.
Procedure, shortened: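 Normal human glucocerebrosidase (0.2 nM final) was assayed with resorufin β-D-glucopyranoside (30 uM final) in 50mM citric acid/KH2PO4, 10mM sodium taurocholate, 0.01% tween-20, pH 5.9. Compounds were titrated; fluorescence (Ex 548, Em 600) read after 20 min at RT.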
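Note: the screen sought inhibitors.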
Potency is the fitted concentration of half-maximal effect.

Sequence of UniProt P04062 (P04062 whole entry, looked up): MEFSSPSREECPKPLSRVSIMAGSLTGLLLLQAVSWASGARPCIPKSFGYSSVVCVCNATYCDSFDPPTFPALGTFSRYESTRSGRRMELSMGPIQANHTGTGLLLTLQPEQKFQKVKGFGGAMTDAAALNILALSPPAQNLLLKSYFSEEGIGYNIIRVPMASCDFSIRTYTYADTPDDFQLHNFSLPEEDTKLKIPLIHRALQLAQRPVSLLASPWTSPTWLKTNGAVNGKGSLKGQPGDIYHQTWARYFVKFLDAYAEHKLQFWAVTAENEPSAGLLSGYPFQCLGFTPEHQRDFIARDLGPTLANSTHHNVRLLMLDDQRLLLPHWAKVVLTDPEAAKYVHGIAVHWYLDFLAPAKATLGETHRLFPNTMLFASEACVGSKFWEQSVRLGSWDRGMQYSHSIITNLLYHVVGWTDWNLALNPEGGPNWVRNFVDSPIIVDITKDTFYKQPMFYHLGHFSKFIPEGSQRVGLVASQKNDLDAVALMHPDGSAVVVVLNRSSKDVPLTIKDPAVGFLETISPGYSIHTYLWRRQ

Potency, inactive:
CCn1c(COc2ccccc2C)nnc1SCC(=O)CC(=O)Nc1ccccc1OC > 76.9 µM, O=C(Cn1nnc2c(cnn2-c2ccc(F)cc2)c1=O)c1ccccc1F > 76.9 µM, CCC(C)Cn1c(C)nc2ccccc21 (stereo not given) > 76.9 µM, CN(C)c1ccc(C(=O)c2ccccc2C(=O)O)c(O)c1 > 76.9 µM, COc1ccccc1C(=O)N1CCN=C1c1ccccc1 > 76.9 µM, CSCCC(NC(N)=O)C(=O)N(C)CC(=O)Nc1ccc(C)cc1 (stereo not given) > 76.9 µM, Cc1cnc(NC(=O)CSc2nnc(-c3ccc(Cl)cc3Cl)n2N)s1 > 76.9 µM, O=C(c1noc2c1CCCCC2)N1CCN(C(c2ccccc2)c2ccccc2)CC1 > 15.4 µM, O=C(c1csc2c1CCCCC2)N1CCN(c2ncccn2)CC1 > 76.9 µM, COc1ccccc1N1CCN(C(=O)c2ccc(S(=O)(=O)N3CCCCCC3)cc2)CC1 > 76.9 µM, CCOC(=O)C1=C(Nc2ccccc2)OCC1=O > 76.9 µM, NS(=O)(=O)c1ccc(NC(=O)c2ccccc2C(=O)N2CCCCC2)cc1 > 76.9 µM, CCOC(=O)N1CCN(C(=O)C2c3cc(OC)c(OC)cc3C(=O)N3CCc4ccccc4C23)CC1 (stereo not given) > 76.9 µM, O=C1NC2=C(C(=O)CCC2)C(c2ccc3ncccc3c2)N1 (stereo not given) > 76.9 µM, O=C(Nc1nncs1)Oc1ccccc1 > 76.9 µM, O=C1CCCN1c1ccc(S(=O)(=O)N2CCC(c3ccccc3)CC2)cc1 > 76.9 µM, COc1ccc(-c2cc(C(F)(F)F)nc(SCCC(=O)N3CCOCC3)n2)cc1 > 76.9 µM, O=C(Cc1ccc(-n2cccc2)cc1)N1CCc2ccccc21 > 76.9 µM, CC(C)(C)OC(=O)N1CCC[C@H]1c1nnc(SCc2ccc(Cl)cc2Cl)o1 > 76.9 µM, CCCOc1cccc(C(=O)Nc2cc(NC(=O)c3ccco3)ccc2OC)c1 > 76.9 µM, CCSc1cnc(-c2ccccc2)n1CC > 76.9 µM, COc1ccc(CCNC(=O)NC(C(F)(F)F)C(F)(F)F)cc1OC > 76.9 µM, COc1cccc(CN2C(=O)CCC2(C)C(=O)NC2CCCCCC2)c1 (stereo not given) > 76.9 µM, CC(NC(=O)CSc1nc2ccccc2c(=O)n1CCCO)c1ccccc1 (stereo not given), COc1ccc(Cl)cc1C(=O)Nn1cnc2ccccc2c1=O > 76.9 µM
